The values that follow come from patent publication US20090291088A1, “THERAPEUTIC COMBINATIONS OF ANTI-IGF-1R ANTIBODIES AND OTHER COMPOUNDS” (Biogen Idec MA Inc., priority 2008, published 2009).

Assay [1] deals with T1, recombinant human IGF-1R-10His (Homo sapiens, UniProt P08069).
T1 construct: denoted hIGF-1R(1-902)-His10, was purchased from R&D systems (Cat. No. 305-GR-050); purchased R&D Systems 305-GR-050
Briefly: SPR, antibodies and Fabs on IGF-1R-His captured via PENTA-His antibody. It counts as binding. Particulars: full-length antibody; 1:1 binding model, approximate; 25° C. For orientation: SPR reads the build-up and loss of mass on a sensor chip optically.

Assay [2] concerns BxPC3. Briefly: Cell cycle arrest of BxPC3 cells (propidium iodide FACS). Particulars: 133.3 nM antibody, IGF-1 at 200 ng/ml, 24 hours. The assay is classed as cell-based, human. The procedure:
Method: The ability of fully human IGF-1R antibodies to arrest cell cycle progression was assessed by FACS analysis; monitoring incorporation of propidium iodide in cultured BxPC3 cells. BxPC3 cells (4×10^5 cells/well) were plated into 6 well plates. After 24 hours, cells were changed to serum-free media (SFM) for the following 24 hours. […] After 24 hours, the cells were trypsinized and fixed with ethanol. DNA content was stained with propidium iodide (PI) prior to FACS analysis. An isotype matched antibody, IDEC-151 (human G4), was used as a negative control.

For assay [3], the target named is IGF-1R (Homo sapiens, UniProt P08069). Briefly: Ligand blocking assay (RIA): 125I-IGF-1 / 125I-IGF-2 binding to immobilized IGF-1R. Further details: human IGF-1R(1-903)-Fc (denoted hIGF-1R-Fc, generated by Biogen Idec). Particulars: 100 nM-0.01 nM antibody, IGF-1R-Fc. From the text:
Ligand blocking assay (RIA). […] Insulin (Arg-Insulin, Cat #01-207) was purchased from Upstate Cell Signaling Solutions (Lake Placid, N.Y. (now part of Millipore, Concord, Mass. (USA)). ^125I-rhIGF-1 (Cat # IM172), ^125I-rhIGF-2 (Cat# IM238) and ^125I-rhInsulin (Cat# IM166) were purchased from Amersham Biosciences (Piscataway, N.J.). AffiPure goat anti-human IgG, Fcγ fragment specific antibodies (Cat #109-005-098, Jackson ImmunoResearch, West Grove, Pa.) was used for IGF-1R-Fc capture. As detection antibody, goat anti-mouse IgG HRP (Cat #1030-05, Southern Biotech Birmingham, Ala.) was used.
Human insulin receptor α-subunit specific antibodies, Clone 83-14, (Cat #AHR0221, Biosource International, Inc., Camarillo, Calif.) and the 47-9 (Cat #E55502M, Biodesign International, Saco, M E) were used as positive controls blocking of insulin-insulin receptor binding experiments. Recombinant IGF-1R-Fc fusion protein was produced at Biogen Idec (Cambridge, Mass.).
As isotype matched mouse negative control antibodies, 2B8 (murine α-CD20.1gG,) and 2B8 mkm.G2a (murine α-CD20 MAb, IgG2a, Biogen Idec, Lot #NB3304-87, San Diego, Calif.) were used. The negative control for Fabs was R001-1B provided by Christilyn Graff (Biogen Idec, Cambridge, Mass.). PBS used in buffers was from BioWhittaker (Cat. # 17-513F, Walkersville, Md.).
Recombinant human IGF-1R (Histidine tagged version) or IGF-1R-Fc was coated onto IMMULON2 HB (high binding) Removawell strips (Dynex Technologies, Inc., cat. #6302) diluted with carbonate coating buffer pH 9.5 to a concentration of 250 ng/well. After overnight incubation at 4° C., the wells were washed three times with washing buffer (0.05% Tween 20/PBS) then blocked with blocking buffer (3% BSA/PBS) for one hour at room temperature. The blocking buffer was removed and the wells washed three more times. Antibody, Fab, or ligand preparations were diluted to desired concentration with dilution buffer (1% BSA/0.05% Tween 20/PBS) and plated at 50 μl per well in duplicate. After 45 minutes at room temperature, 100,000 cpm of either [125I] rhIGF-1 or [125I] rhIGF-2 in 50 μl dilution buffer was added per well. This was incubated at room temperature for one more hour. The wells were washed again three more times and left liquid free after the last wash. The air-dried wells were counted with the Isodata Gamma Counter.
Alternatively, Fabs were evaluated by a modified capture assay, where the IGF-1R-Fc was captured using anti-human IgG immobilized to a plate. Immobilization was carried out by overnight incubation of goat anti-human IgG, Fcγ fragment specific antibody (200 ng/well) in carbonate coating buffer. The wells were washed, blocked and 250 ng of IGF-1R-Fc was added per well.
The ligand blocking ability of the anti-IGF-1R antibody was determined by a solid phase RIA capture method as described in Example 3. […] After 1 hour of incubation at room temperature, the wells were washed and counted for bound radioactivity by a Gamma Counter. An isotype matched negative antibody control, IDEC-151 (human G4), was used. Percent (%) inhibition was calculated as =[1−(Ave.CPM with Ab)/(Ave.CPM with buffer)]×100%.

In assay [4] the target is T1, recombinant human IGF-1R-10His. As to the kind of experiment: SPR, antibodies and Fabs on IGF-1R-His captured via PENTA-His antibody. The assay is classed as binding. Particulars: Fab fragment; 25° C. The procedure: Method: The binding activity of M13-C06, M14-C03, and […] to soluble IGF-1R was measured using surface plasmon resonance. Biotinylated PENTA-His Antibody (Qiagen, Inc.) was immobilized onto a Streptavidin coated Sensor Chip. Soluble/Dimeric IGF-1R-His ectodomain (R&D systems, Inc.) was captured on the surface via the PENTA-His antibody. Secondary injections of M13-C06, M14-C03, or M14-G11 Fabs (0.5 nM-100nM) were performed. The surfaces were regenerated with three short injections of acetate, pH 4.0.
M13-C06, M14-C03, and M14-G11 Fab antibodies were prepared by digestion with immobilized papain (Pierce Cat. No. 20341 (Pierce Biotechnology, Inc., Rockford, Ill.)). The papain resin was washed with 20 mM sodium phosphate pH 7.0; 10 mM EDTA; 20 mM Cysteine. Antibodies were mixed with the papain resin in 500 mM EDTA, 100 mM Cysteine pH 7.0 and digested for three hours in a 37° C. water bath followed by mixing on an inverting shaker overnight at room temperature. Completion of each digestion was determined by analytical size exclusion chromatography (SEC). The resin was removed from the digested protein with a sintered glass funnel filter and washed with 20 mM acetate pH 5.0. The flowthrough was collected and diluted 10-fold with 20 mM acetate pH 5.0. Fab fragments were purified by S-SEPHAROSE™ cation exchange chromatography using a linear salt gradient. […]

B1: M13-C06_Ab (antibody)
heavy: EVQLLESGGGLVQPGGSLRLSCAASGFTFSIYRMQWVRQAPGKGLEWVSGISPSGGTTWYADSVKGRFTISRDNSKNTLYLQMNSLRAEDTAVYYCARWSGGSGYAFDIWGQGTMVTVSSASTKGPSVFPLAPCSRSTSESTAALGCLVKDYFPEPVTVSWNSGALTSGVHTFPAVLQSSGLYSLSSVVTVPSSSLGTKTYTCNVDHKPSNTKVDKRV[human IgG4 Fc with S228P T299A (EU numbers) not written out]
light: DIQMTQSPLSLSASVGDRVTITCQASRDIRNYLNWYQQKPGKAPKLLIYDASSLQTGVPSRFGGSGSGTDFSFTIGSLQPEDIATYYCQQFDSLPHTFGQGTKLEIKRTVAAPSVFIFPPSDEQLKSGTASVVCLLNNFYPREAKVQWKVDNALQSGNSQESVTEQDSKDSTYSLSSTLTLSKADYEKHKVYACEVTHQGLSSPVTKSFNRGEC
As for B1, in assay [1], the “ka” value was found to be 1.8e+06 M⁻¹ s⁻¹ and the “kd” value came out at 0.00025 s⁻¹.

B2: M14-G11.G4.P.agly: full-length aglycosylated human IgG4.P version of Fab M14-G11 (antibody)
heavy: EVQLLESGGGLVQPGGSLRLSCAASGFTFSNYPMYWVRQAPGKGLEWVSRISSSGGRTVYADSVKGRFTISRDNSKNTLYLQMNSLRAEDTAVYYCARDRWSRSAAEYGLGGYWGQGTLVTVSSASTKGPSVFPLAPCSRSTSESTAALGCLVKDYFPEPVTVSWNSGALTSGVHTFPAVLQSSGLYSLSSVVTVPSSSLGTKTYTCNVDHKPSNTKVDKRV[human IgG4 Fc with S228P T299A (EU numbers) not written out]
light: DIQMTQSPDSLAVSLGERATINCKSSQSVLYSSNNKNYLAWYQQKPGQPPKLLIYLASTRESGVPDRFSGSGSGTDFTLTISSLQAEDVAVYYCQQYYSTWTFGQGTKVEIKRTVAAPSVFIFPPSDEQLKSGTASVVCLLNNFYPREAKVQWKVDNALQSGNSQESVTEQDSKDSTYSLSSTLTLSKADYEKHKVYACEVTHQGLSSPVTKSFNRGEC
As for B2, in assay [2], the cell cycle arrest result is listed as “arrested the BxPC3 tumor cells at the G0/G1 phase”. In addition, the “blocking of IGF-1 and IGF-2 binding to IGF-1R” value in assay [3] was “block both IGF-1 and IGF-2 binding”.

B3: M14-G11_Ab (antibody)
heavy: EVQLLESGGGLVQPGGSLRLSCAASGFTFSNYPMYWVRQAPGKGLEWVSRISSSGGRTVYADSVKGRFTISRDNSKNTLYLQMNSLRAEDTAVYYCARDRWSRSAAEYGLGGYWGQGTLVTVSSASTKGPSVFPLAPCSRSTSESTAALGCLVKDYFPEPVTVSWNSGALTSGVHTFPAVLQSSGLYSLSSVVTVPSSSLGTKTYTCNVDHKPSNTKVDKRV[human IgG4 Fc with S228P T299A (EU numbers) not written out]
light: DIQMTQSPDSLAVSLGERATINCKSSQSVLYSSNNKNYLAWYQQKPGQPPKLLIYLASTRESGVPDRFSGSGSGTDFTLTISSLQAEDVAVYYCQQYYSTWTFGQGTKVEIKRTVAAPSVFIFPPSDEQLKSGTASVVCLLNNFYPREAKVQWKVDNALQSGNSQESVTEQDSKDSTYSLSSTLTLSKADYEKHKVYACEVTHQGLSSPVTKSFNRGEC
As to B3, in assay [1], the “ka” value is 1e+06 M⁻¹ s⁻¹ and the “kd” value was found to be 0.00011 s⁻¹.

B4: M14-G11_Fab (antibody, V domains shown)
VH: EVQLLESGGGLVQPGGSLRLSCAASGFTFSNYPMYWVRQAPGKGLEWVSRISSSGGRTVYADSVKGRFTISRDNSKNTLYLQMNSLRAEDTAVYYCARDRWSRSAAEYGLGGYWGQGTLVTVSS
VL: DIQMTQSPDSLAVSLGERATINCKSSQSVLYSSNNKNYLAWYQQKPGQPPKLLIYLASTRESGVPDRFSGSGSGTDFTLTISSLQAEDVAVYYCQQYYSTWTFGQGTKVEIK
With B4, in assay [4], the “ka” value was found to be 300000 M⁻¹ s⁻¹ and the “kd” value amounted to 0.0012 s⁻¹.
